Assay results as given in PubChem BioAssay AID588591 (National Center for Advancing Translational Sciences (NCATS), 2011).
The campaign covered roughly 390,000 compounds. About 4,700 (1.2%) were called active. The inconclusive results got no clear call from the source; some entries with a clear call stand among them for comparison. Calls follow the shape of the dose curve; as a rule, active = well fitted inhibition curve with a large enough effect; inconclusive = small, poorly fitted or top-dose-only effect, or another doubt; inactive = no such curve, though single readings can be large or run the other way. A potency beside an inconclusive call is a rough fit, not a confirmed value.

Molecular target: DNA polymerase eta (Homo sapiens) (UniProt Q9Y253)
Experiment: qHTS for Inhibitors of Polymerase Eta
Conditions: recombinant Pol eta, fluorescent DNA replication assay; series mostly up to 114 µM; activity change, negative = inhibition: at the top concentration
Method in brief: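 Pol eta at 10 nM preincubated with compounds 15 min at room temperature; reaction started with fluorescent substrate (50 nM final) and read kinetically at 0 and 10 min.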
% is scaled to controls: 0 for no effect and ±100 for the full control effect; potency is read from the fitted curve at half-maximal effect; tags tell the direction and shape of the fitted curve.

UniProt Q9Y253, sequence (Q9Y253 whole entry, looked up): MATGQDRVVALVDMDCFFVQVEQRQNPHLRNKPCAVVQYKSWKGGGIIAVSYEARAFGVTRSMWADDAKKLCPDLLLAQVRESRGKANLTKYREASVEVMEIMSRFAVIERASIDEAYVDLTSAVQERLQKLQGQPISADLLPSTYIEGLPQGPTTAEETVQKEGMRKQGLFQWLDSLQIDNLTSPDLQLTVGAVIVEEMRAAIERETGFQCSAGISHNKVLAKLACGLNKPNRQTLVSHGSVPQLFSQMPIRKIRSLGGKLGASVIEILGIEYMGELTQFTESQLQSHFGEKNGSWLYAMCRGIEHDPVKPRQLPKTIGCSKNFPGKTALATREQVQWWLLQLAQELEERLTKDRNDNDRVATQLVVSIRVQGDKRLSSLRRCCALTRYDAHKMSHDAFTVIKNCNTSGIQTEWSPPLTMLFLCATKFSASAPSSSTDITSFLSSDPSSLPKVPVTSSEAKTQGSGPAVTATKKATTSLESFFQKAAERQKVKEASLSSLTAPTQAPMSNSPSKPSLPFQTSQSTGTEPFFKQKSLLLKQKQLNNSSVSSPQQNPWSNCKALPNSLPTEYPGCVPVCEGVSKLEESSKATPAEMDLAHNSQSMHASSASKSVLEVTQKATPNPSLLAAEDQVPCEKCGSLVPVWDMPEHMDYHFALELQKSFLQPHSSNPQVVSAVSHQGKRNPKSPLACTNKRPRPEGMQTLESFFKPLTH

Row | Structure (SMILES) | Potency | activity change, negative = inhibition
1 | Cc1nc2c(C(=O)NCCc3ccc(Cl)cc3)c[nH]n2c(=O)c1Cc1ccc(Cl)cc1 | active: 89.1 µM | 
2 | Cc1c(C(=O)O)cnc2c([N+](=O)[O-])cnn12 | inconclusive: 50.1 µM [inhibitor, partial curve] | 
3 | COc1cccc(/C=N/Nc2nc3ccccc3n3cnnc23)c1 | inconclusive: 22.4 µM [inhibitor, partial curve, poor fit] | 
4 | O=C(CNS(=O)(=O)c1ccc(Cl)cc1)N1CCN(c2ccc(F)cc2)CC1 | inconclusive: 89.1 µM [inhibitor, single point] | 
5 | CC(C)Nc1nnc(SCC(=O)Nc2sccc2C#N)s1 | active: 31.6 µM | 
6 | Cc1ccc(/C=C/C(=O)OCC(=O)NC(=O)NCc2ccco2)cc1 | active: 50.1 µM | 
7 | COC(=O)c1sc(NC(=S)NC(=O)c2cc(OC)c(OC)c(OC)c2)nc1C |  | inactive: -2.65%
8 | Cc1cc(-c2ccccc2)nc2cc(C(=O)NCc3ccco3)nn12 | active: 44.7 µM | 
9 | O=C(c1cc(Cl)cc(Cl)c1)N1CCC2CC1c1cc(N3CCCCC3)ccc12 (stereo not given) | inconclusive: 89.1 µM [inhibitor, partial curve, poor fit] | 
10 | CC[C@@H](C)[C@@H](C(=O)N1CCN(C(=O)OC(C)(C)C)CC1)n1cc(CCCN=C(NC(=O)OC(C)(C)C)NC(=O)OC(C)(C)C)nn1 | inconclusive: 22.4 µM [inhibitor, partial curve, poor fit] | 
11 | Nc1ccc(N2CCCCC2)c2nonc12 | active: 35.5 µM | 
12 | CCn1c(SCc2nc3sc(C(=O)O)c(C)c3c(=O)[nH]2)nnc1-c1ccc(Cl)cc1 | inconclusive: 50.1 µM [inhibitor, partial curve, poor fit] | 
13 | O=C(O)c1cn(Cc2ccccn2)c(=O)c2ccccc12 |  | inactive: -3.28%
14 | COc1cc(-c2cc(=O)c3c(C)cc(O)cc3o2)cc(OC)c1OC | inconclusive: 17.8 µM [inhibitor, partial curve, poor fit] | 
15 | COc1ccc2cc3cc(C(=O)NCCCN4CCc5ccccc5C4)sc3nc2c1 | inconclusive: 44.7 µM [inhibitor, partial curve, poor fit] | 
16 | CCCC(CCC)C(=O)Nc1cc(-c2cn3cccnc3n2)ccc1OC |  | inactive: -3.88%
17 | CCCCNC1=CC(=O)C(=O)c2ccccc21 | inconclusive: 79.4 µM [inhibitor, single point] | 
18 | CCc1cccc(NC(=O)C2CCCN(S(=O)(=O)c3cccs3)C2)c1 (stereo not given) | inactive | 
19 | CCOC(=O)c1nn(-c2ccc(C)cc2)c(=O)c2c(N)scc12 | inconclusive: 22.4 µM [inhibitor, single point] | 
20 | Cc1ccc(S(=O)(=O)CC(=O)Nc2ccc(Cl)cn2)cc1 |  | inactive: -2.11%
21 | O=C1CCN2C=Nc3cccc4ccc1c2c34 | inconclusive: 35.5 µM [inhibitor, partial curve, poor fit] | 
22 | Cc1ccc2nc3sc(C(=O)NCc4ccco4)c(N)c3cc2c1 | inconclusive: 15.8 µM [inhibitor, partial curve, poor fit] | 
23 | CN=c1sc2c(n1C)C(=O)c1ccccc1C2=O | active: 79.4 µM | 
24 | CCc1cccc(NC(=O)C(Cc2ccccc2)NS(=O)(=O)c2ccc3c(c2)oc(=O)n3C)c1 (stereo not given) |  | inactive: -10%

Row | Structure (SMILES) | Potency | activity change, negative = inhibition
25 | O=C(/C=C/c1cccc(Br)c1)N1CCN(c2cccc(C(F)(F)F)c2)CC1 | inconclusive: 79.4 µM [inhibitor, partial curve, poor fit] | 
26 | Nc1cc(C(=O)OCC(=O)c2ccc(CC(=O)N3CCOCC3)s2)ccc1Cl | active: 28.2 µM | 
27 | O=C1[C@H]2[C@@H](c3ccc(C(F)(F)F)cc3)N[C@]3(CCCN(Cc4ccc(C(F)(F)F)cc4)C3=O)[C@H]2C(=O)N1Cc1ccccc1 | inconclusive: 12.6 µM [inhibitor, partial curve, poor fit] | 
28 | CCOc1[nH]c(/N=C/c2ccco2)c(C#N)c1C#N | active: 14.1 µM | 
29 | COc1ccc(CCC(=O)NCc2ccco2)cc1 | active: 20 µM | 
30 | CCOC(=O)[C@@H]1[C@H]2COc3ccccc3[C@@H]2N2C(=O)N(c3ccc(C(F)(F)F)cc3)C(=O)[C@]12C | inconclusive: 79.4 µM [inhibitor, partial curve, poor fit] | 
31 | O=S1(=O)CCOC[C@H](Cc2ccccc2)N1Cc1cccc(C(F)(F)F)c1 | inconclusive: 79.4 µM [inhibitor, partial curve, poor fit] | 
32 | Cc1ccc(S(=O)(=O)Cc2ccc(C(=O)N3CCc4ccccc4C3)o2)cc1 | active: 20 µM | 
33 | Cc1nc(NC(=O)c2ccc([N+](=O)[O-])cc2Cl)sc1C(=O)N(C)C | inconclusive: 15.8 µM [inhibitor, full curve, poor fit] | 
34 | CC(=O)c1cccc(NC(=O)C2COc3ccccc3O2)c1 (stereo not given) | inconclusive: 89.1 µM [inhibitor, single point] | 
35 | Cc1ccc2cc(C3CC(c4ccco4)=NN3C(=O)CCC(=O)O)c(Cl)nc2c1 (stereo not given) | inconclusive: 35.5 µM [inhibitor, single point] | 
36 | O=[N+]([O-])c1ccc2c([N+](=O)[O-])ccc3c2c1CC3 | active: 14.1 µM | 
37 | CCOc1ccc(-c2cc(C(=O)N3CCN(S(=O)(=O)c4cc(Cl)ccc4OC)CC3)[nH]n2)cc1 |  | inactive: -5.74%
38 | C#CCOCCOCCOCCNc1nc(N2CCN(C(=O)Cn3cc(CCCN=C(N)N)nn3)CC2)nc(N2CCN(C(=O)[C@H](C)n3cc(CCCN=C(N)N)nn3)CC2)n1 |  | inactive: -14.6%
39 | CCOc1ccc(CCNC(=O)c2cnc3sc(N4CCC(C)CC4)nn3c2=O)cc1 |  | inactive: 6.88%
40 | CCC(C)(C)n1nnnc1C(c1cc2cc(C)ccc2[nH]c1=O)N1CCCc2ccccc21 (stereo not given) | inconclusive: 25.1 µM [inhibitor, partial curve] | 
41 | CCOC(=O)C(C)(C)N(Cc1ccc(C)cc1)S(=O)(=O)c1ccc(Cl)c([N+](=O)[O-])c1 | inconclusive: 70.8 µM [inhibitor, single point] | 
42 | O=C(/C=C/c1cc[n+](CC(=O)c2ccc3cccc4c3c2CC4)cc1)c1ccc2cccc3c2c1CC3 | inconclusive: 89.1 µM [inhibitor, partial curve, poor fit] | 
43 | O=C(COC(=O)c1ccc([N+](=O)[O-])o1)c1ccccc1 |  | inactive: -11.7%
44 | COC(=O)C(=O)Nc1nnc(COc2ccccc2)s1 | inconclusive: 22.4 µM [inhibitor, single point] | 
45 | CN1C(=O)C(Cl)(Cl)C(=O)c2ccccc21 |  | inactive: -0.669%
46 | Cc1[nH]c(=O)c(C#N)c2c1CCCC2 |  | inactive: 0.118%
47 | COc1ccc(-c2noc(CSc3nnc(C)n3-c3ccc(OC)cc3)n2)cc1 |  | inactive: -18.9%
48 | CNc1c2cccc(C)c2nc2c(C(=O)NCCN(C)C)cccc12 | active: 3.55 µM | 

Row | Structure (SMILES) | Potency | activity change, negative = inhibition
49 | CCCCc1nc(NCCNC(=O)c2ccccc2)c(C#N)c2c1CSC(C)(C)C2 |  | inactive: -16.9%
50 | COCc1cc(C)n(CC(=O)N/N=C/c2ccc(-c3ccc(Cl)c(C(=O)O)c3)o2)c(=O)c1C#N | active: 10 µM | 
51 | COC(=O)c1cc(O)cc(OC)c1C(=O)c1c(O)cc(C)cc1O | active: 35.5 µM | 
52 | O=c1[nH]c(-c2ccco2)nc2sc3c(c12)CCCC3 | inconclusive: 28.2 µM [inhibitor, partial curve, poor fit] | 
53 | COc1ccc(C=NNC(=S)NN=Cc2ccc(OC)c(OC)c2)cc1OC | inconclusive: 17.8 µM [inhibitor, full curve, poor fit] | 
54 | O=C(Nc1ccccc1C(F)(F)F)NC1(C(=O)N2CCOCC2)CCCCC1 | inconclusive: 15.8 µM [inhibitor, full curve, poor fit] | 
55 | O=C(NC1CC1)C1CCN(S(=O)(=O)c2ccc(Cl)cc2)CC1 | inconclusive: 100 µM [inhibitor, partial curve, poor fit] | 
56 | O=[N+]([O-])c1ccc(C=NNC(=S)NN=Cc2ccc([N+](=O)[O-])cc2)cc1 | inconclusive: 22.4 µM [inhibitor, full curve] | 
57 | CC(C)CN(CC(C)C)CC(O)COc1ccc([N+](=O)[O-])cc1 (stereo not given) | inconclusive: 79.4 µM [inhibitor, partial curve, poor fit] | 
58 | Cc1cc(C(=O)COC(=O)c2cc(Cl)c(O)c(Cl)c2)c(C)n1C | active: 15.8 µM | 
59 | O=C(CCS(=O)(=O)c1ccc(Br)cc1)NCc1cccs1 | active: 17.8 µM | 
60 | Cc1cccc(OCc2nn[nH]n2)c1C |  | inactive: -2.59%
61 | COc1ccc(CCNC(=O)C(=O)Nc2ccc(C)cc2)cc1OC |  | inactive: 0.4%
62 | COc1ccc(-c2nnc(CSc3ncnc4sc5c(c34)CCC5)o2)cc1OC | inconclusive: 15.8 µM [inhibitor, partial curve, poor fit] | 
63 | C[C@H](CO)N1C[C@H](C)[C@@H](CN(C)S(=O)(=O)c2cccc(F)c2)Oc2ncc(Br)cc2C1=O |  | inactive: -15.6%
64 | CCN1CCN(C(c2cccs2)C(C)NC(=O)C(=O)N2CCCCC2)CC1 (stereo not given) |  | inactive: 5.55%
65 | Cc1c(OCC(=O)N[C@@H](Cc2c[nH]c3ccccc23)C(=O)O)ccc2c1oc(=O)c1ccccc12 | active: 79.4 µM | 
66 | C[C@H](CO)N1C[C@H](C)[C@@H](CN(C)C(=O)NC2CCCCC2)Oc2ccc(NC(=O)Cc3ccccc3)cc2C1=O |  | inactive: -12.2%
67 | O=C(CCl)Nc1cc2[nH]c(=O)[nH]c2cc1Br | inconclusive: 44.7 µM [inhibitor, partial curve] | 
68 | O=C(Oc1ccccc1F)c1ccc2c(=O)n3c(nc2c1)CCC3 | inconclusive: 50.1 µM [inhibitor, partial curve] | 
69 | CCOC(=O)N1CCN(CC(=O)Nc2nc3ccccc3s2)CC1 |  | inactive: -11.5%
70 | Cc1ccc(S(=O)(=O)N2CCC(=O)N(C(COCc3ccc(C(F)(F)F)cc3)Cc3ccccc3)CC2)cc1 (stereo not given) | inconclusive: 44.7 µM [inhibitor, partial curve, poor fit] | 
